{"source": "PubChem BioAssay AID504706", "about": "(National Center for Advancing Translational Sciences (NCATS), 2011)", "note": "Screen size: about 320,000 compounds; about 200 (0.062%) were called active. Inconclusive results, whose numbers are uncertain, are shown with a selection of clear calls. The call rests on the fitted dose curve; in most records, active means well fitted activation curve with a large enough effect; inconclusive means small, poorly fitted or top-dose-only effect; inactive means no such curve, though single readings can be large or run the other way. No potency is given beside an inconclusive call; the fits are too rough. Potency means the concentration at half of the fitted maximal effect; tags describe the fitted curve by direction and shape.", "data": [{"assay": "qHTS assay for re-activators of p53 using a Luc reporter; further: nearly all actives have a fitted effect of over 45% in size", "conditions": "H1299 p53-A138V BP100-luciferase reporter, luminescence, 24 h; series mostly up to 92.2 µM", "outline": "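H1299 (p53-null), stable ts p53-A138V + BP100-Luc; 1000 cells/well, Opti-MEM/10% FBS; cpd 4 pt, 1:5; 24 h, 37 deg C, 5% CO2; detection reagent 10 min RT; luminescence.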", "values": [{"compound": "Fc1ccc(-c2csc(N3CCOCC3)n2)cc1", "Potency": "inconclusive [activator, partial curve, poor fit]"}, {"compound": "C=CCc1cccc(/C=N/NC(=O)C(C)Nc2ccc(C)cc2)c1O", "note": "(stereo unspecified)", "Potency": "inconclusive [activator, partial curve, poor fit]"}, {"compound": "Fc1ccc(CSc2nnc(-c3ccccn3)o2)cc1", "Potency": "inactive"}, {"compound": "COc1ccc(NC(=O)CN(C)C(=O)CNC(=O)c2sc3ccccc3c2Cl)cc1", "Potency": "inconclusive [activator, single point]"}, {"compound": "O=C(c1cc2c(s1)-c1ccccc1OC2)N1CCCC1", "Potency": "inconclusive [activator, partial curve, poor fit]"}, {"compound": "CO/N=C/c1ccc(Oc2ccc(C)cc2)nc1", "Potency": "inactive"}, {"compound": "CCC1=NN(C(=O)c2ccccc2Br)C(O)(c2ccc(Br)cc2)C1", "note": "(stereo unspecified)", "Potency": "inactive"}, {"compound": "CC(=O)Nc1ccc(NC(=O)Cn2cnc3c(cnn3C(C)(C)C)c2=O)cc1", "Potency": "inconclusive [activator, partial curve, poor fit]"}, {"compound": "COc1ccc(CCN(C)C(=O)c2c(C)noc2C)cc1OC", "Potency": "inactive"}, {"compound": "Cc1cc(C(=O)COC(=O)c2ccc(O)cc2)c(C)n1CC(F)(F)F", "Potency": "inconclusive [activator, full curve, poor fit]"}, {"compound": "CN(C)CCC(=O)c1ccc2c(c1)OCO2", "Potency": "inactive"}, {"compound": "COC(=O)/C(=C\\C(=O)c1ccccc1)Nc1cccc(C(F)(F)F)c1", "Potency": "active: 28.2 µM"}, {"compound": "COc1ccc(NC(=O)COC(=O)Cc2c(F)cccc2Cl)cc1", "Potency": "inactive"}, {"compound": "CCN(Cc1ccccc1)C(=O)CCCOc1ccccc1", "Potency": "inconclusive [activator, partial curve, poor fit]"}, {"compound": "CCOC(=O)c1sc(Nc2ccccc2)nc1C", "Potency": "inactive"}, {"compound": "C(=N\\Nc1nc2ccccc2[nH]1)/c1cccc2nccnc12", "Potency": "inactive"}, {"compound": "O=C(CCNC(=O)c1ccc(Cl)cc1)NCCC1=CCCCC1", "Potency": "inactive"}, {"compound": "CC(/C=N/NC(=O)c1cc(-c2ccc3ccccc3c2)n[nH]1)=C\\c1ccco1", "Potency": "inconclusive [activator, single point]"}, {"compound": "COc1ccc(NC(=S)NC2CCCCC2)cn1", "Potency": "inactive"}, {"compound": "N#Cc1ccc(-c2ccccc2)nc1Sc1ccc(F)cc1", "Potency": "inactive"}, {"compound": "O=C(c1ccccc1-c1nc(-c2ccccc2Cl)no1)N1CCOCC1", "Potency": "inactive"}, {"compound": "Cc1cc(C)c2nc(NC(=O)C3CCCO3)sc2c1", "note": "(stereo unspecified)", "Potency": "inconclusive [activator, partial curve, poor fit]"}, {"compound": "CNC(=O)c1ccsc1NC(=O)c1ccc(Cl)s1", "Potency": "inconclusive [activator, partial curve, poor fit]"}, {"compound": "C=C(C)CCC(C)N1CCC(n2nccc2NC(=O)CCOc2ccccc2)CC1", "note": "(stereo unspecified)", "Potency": "inconclusive [activator, single point]"}, {"compound": "CC(=C/c1ccco1)/C=N/N1CCN(c2ccccc2)CC1", "Potency": "inconclusive [activator, single point]"}, {"compound": "Cc1cc(=O)[nH]c(SCC(=O)c2ccc(C)c(C)c2)n1", "Potency": "inconclusive [activator, single point]"}, {"compound": "O=C(c1ccc(Cl)c([N+](=O)[O-])c1)N1CCN(S(=O)(=O)c2ccc(Cl)cc2)CC1", "Potency": "inconclusive [activator, partial curve, poor fit]"}, {"compound": "COc1ccc(C(=O)NC(=S)Nc2ccccc2F)cc1", "Potency": "inconclusive [activator, full curve, poor fit]"}, {"compound": "Cc1ccsc1C(=O)NNC(=O)C1CCCCC1C(=O)O", "note": "(stereo unspecified)", "Potency": "inconclusive [activator, partial curve, poor fit]"}, {"compound": "Cn1cc(CCNC(=O)c2ccc3nc(Cc4ccccc4F)oc3c2)cn1", "Potency": "inconclusive [activator, full curve, poor fit]"}, {"compound": "O=C(N/N=C\\c1ccc(Cl)s1)c1cccs1", "Potency": "inactive"}, {"compound": "CCCC(=O)Nc1nc(-c2ccccc2)ns1", "Potency": "inconclusive [activator, partial curve, poor fit]"}, {"compound": "CCOc1ccc(NC(=O)COC(=O)C2CC2C)cc1", "note": "(stereo unspecified)", "Potency": "inconclusive [activator, full curve, poor fit]"}, {"compound": "Cc1nc(SC(C(=O)c2ccccc2)c2ccccc2)nc2ccccc12", "note": "(stereo unspecified)", "Potency": "inactive"}, {"compound": "CCn1c(SCC(=O)c2ccc(Cl)cc2)nnc1C(C)C", "Potency": "inconclusive [activator, partial curve, poor fit]"}, {"compound": "CC(C)c1ccc2c(c1)C1(NN=C(c3ccccc3)S1)C(=O)N2", "note": "(stereo unspecified)", "Potency": "inconclusive [activator, partial curve, poor fit]"}, {"compound": "Cn1c(=NC(=O)c2ccco2)sc2cccc(F)c21", "Potency": "inconclusive [activator, full curve, poor fit]"}, {"compound": "Clc1ccc(-c2cn3c(n2)CCC3)cc1", "Potency": "inconclusive [activator, partial curve, poor fit]"}, {"compound": "COc1ccc2[nH]cc(C(=O)CNc3nc(C)cs3)c2c1", "Potency": "inconclusive [activator, partial curve, poor fit]"}, {"compound": "COC(=O)CC1C(=O)NCCN1C(=S)NC(=O)c1ccccc1[N+](=O)[O-]", "note": "(stereo unspecified)", "Potency": "inconclusive [activator, single point]"}, {"compound": "Cc1cc(C)cc(NC(=O)CN2CCN(CCN=CC3=C(O)CC(C)(C)CC3=O)CC2)c1", "Potency": "inactive"}, {"compound": "O=C(CSc1nnc(-c2ccco2)o1)Nc1c(F)cccc1F", "Potency": "inconclusive [activator, single point]"}, {"compound": "Cc1ccccc1OCC(=O)N/N=C1\\SCC(=O)N1Cc1ccccc1", "Potency": "inconclusive [activator, single point]"}, {"compound": "CC(=O)Nc1cccc(C(=O)Nc2cccc(S(=O)(=O)NCc3ccco3)c2)c1", "Potency": "inactive"}, {"compound": "Cc1cc(C(=O)CSc2nnc(C3CC3)n2C2CC2)c(C)n1C(C)C", "Potency": "inconclusive [activator, full curve, poor fit]"}, {"compound": "N#C/C(=C\\c1ccc(Cl)cc1)c1nc(-c2ccco2)cs1", "Potency": "inactive"}, {"compound": "COc1ccc(NC(=O)c2cc(C3CC3)nc3c2cnn3C(C)C)cc1OC", "Potency": "inactive"}, {"compound": "O=C(CSc1nc2ccccc2s1)N1N=C(c2cccs2)CC1c1ccc(F)cc1", "note": "(stereo unspecified)", "Potency": "inactive"}, {"compound": "COc1ccccc1OCC(=O)O/N=C(\\N)c1ccccn1", "Potency": "inconclusive [activator, partial curve, poor fit]"}, {"compound": "COn1c(-c2ccc(Cl)cc2)nc2ccc(Cl)cc21", "Potency": "inconclusive [activator, full curve, poor fit]"}, {"compound": "O=C(O)c1nc2ccccc2nc1C(=O)O", "Potency": "inconclusive [activator, partial curve, poor fit]"}, {"compound": "CN(C)c1ccc(C(=O)c2ccc(O)cc2O)cc1", "Potency": "inconclusive [activator, full curve]"}, {"compound": "O=C(Nc1cccc(F)c1)c1ccc2c(c1)OCCO2", "Potency": "inconclusive [activator, full curve, poor fit]"}, {"compound": "S=C(Nc1ccccc1)Nc1nc2ccccc2n1CCOc1ccc(Cl)cc1", "Potency": "inconclusive [activator, single point]"}, {"compound": "C=CCn1c(NCc2c[nH]c3ccccc23)nc2ccccc21", "Potency": "inconclusive [activator, partial curve, poor fit]"}, {"compound": "O=C(Nc1cccc(O)c1)c1cc(-c2cccs2)on1", "Potency": "inconclusive [activator, partial curve, poor fit]"}, {"compound": "Cc1ccc(NC(=S)NCCO)c(C)c1", "Potency": "inactive"}, {"compound": "CCCC(=O)Nc1nn(CCC)c2nc3ccccc3cc12", "Potency": "inactive"}, {"compound": "CN1CCc2c(sc3c2C(=O)NC(c2cccs2)N3)C1", "note": "(stereo unspecified)", "Potency": "inconclusive [activator, partial curve, poor fit]"}, {"compound": "Cc1ccc(C)n1-c1ccc(NC(=O)c2ccccc2)cc1", "Potency": "inactive"}, {"compound": "COc1cc(C(=O)NC2CC(C)(C)Cc3c2cnn3-c2ccccc2)cc(OC)c1OC", "note": "(stereo unspecified)", "Potency": "inconclusive [activator, single point]"}, {"compound": "O=C(CN1C(=O)c2ccccc2S1(=O)=O)N1CCOCC1", "Potency": "inconclusive [activator, partial curve, poor fit]"}, {"compound": "CC(Oc1ccc(Cl)cc1Cl)c1nc(-c2ccc(NC(=O)c3ccccn3)cc2)no1", "note": "(stereo unspecified)", "Potency": "inconclusive [activator, full curve]"}, {"compound": "Cc1c(Br)c([N+](=O)[O-])nn1CC(=O)Nc1sc2c(c1C(=O)OC(C)C)CCCC2", "Potency": "inconclusive [activator, partial curve, poor fit]"}, {"compound": "Cc1[nH]c2ccccc2c1C(=O)CSC(=S)N1CCCCC1", "Potency": "inconclusive [activator, partial curve, poor fit]"}, {"compound": "CN(CC(=O)Nc1ccc(Cl)c(C(F)(F)F)c1)C(=O)CNC(=O)C1CCCCC1", "Potency": "inconclusive [activator, partial curve, poor fit]"}, {"compound": "Cc1cc(N2CCOCC2)nc(SCC(=O)c2ccccc2)n1", "Potency": "inconclusive [activator, partial curve, poor fit]"}, {"compound": "CCC(COC)NC(=O)CCc1nnc(Cc2c[nH]c3ccccc23)o1", "note": "(stereo unspecified)", "Potency": "inconclusive [activator, single point]"}, {"compound": "Nc1nnc(CC(=O)NCc2ccccc2)s1", "Potency": "inconclusive [activator, partial curve, poor fit]"}, {"compound": "CCCc1cc(C(=O)NNC(=S)Nc2cccc(C)c2)cs1", "Potency": "inconclusive [activator, partial curve, poor fit]"}, {"compound": "Cc1cc(C)c(NC(=O)COC(=O)c2cc([N+](=O)[O-])ccc2N2CCOCC2)c(C)c1", "Potency": "inactive"}]}]}
